Experimental data from the supplement of paper PMC4604168 (melanoma cell lines).
The other results are listed elsewhere or left out. Single values are uncertain, as repeats are few or missing.

Columns and labels:
Test in all cases: cell count relative to DMSO control; melanoma cells; higher = more viable cells
Conditions in all cases: library dose: low library concentration; 72 h
COLO792 = system: COLO792
COLO800 = system: COLO800
COLO829 = system: COLO829
G361 = system: G361
IPC-298 = system: IPC-298
IST-MEL1 = system: IST-MEL1
LB2518-MEL = system: LB2518-MEL
LOXIMVI = system: LOXIMVI
MEL-HO = system: MEL-HO
MZ2-MEL = system: MZ2-MEL
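Also: cell number obtained by counting DAPI-stained nuclei in high-throughput microscope images with image analysis software, screen run in 1,536-well plates.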

| SMILES | cell count (COLO792) [%] | cell count (COLO800) [%] | cell count (COLO829) [%] | cell count (G361) [%] | cell count (IPC-298) [%] | cell count (IST-MEL1) [%] | cell count (LB2518-MEL) [%] | cell count (LOXIMVI) [%] | cell count (MEL-HO) [%] | cell count (MZ2-MEL) [%] |
| --- | --- | --- | --- | --- | --- | --- | --- | --- | --- | --- |
| Cn1cc(/C=C2\C(=O)Nc3cccnc32)c2ccccc21 + CC(C)CCN1c2nc(Nc3cc(F)c(O)c(F)c3)ncc2N(C)C(=O)C1C [BID1870] (first compound 0.4 µM, partner dose 0.2 µM) | 96.7 | 84.2 | 106 | 87.3 | 99 | 84 | 88.6 | 127 | 75.8 | 97.9 |
| O=C(O)C(=O)Nc1sc2c(c1C(=O)O)CCNC2 + Cc1cc([N+](=O)[O-])ccc1NS(=O)(=O)c1cc(Cl)ccc1Cl [FH535] (first compound 1.66667 µM, partner dose 1 µM) | 89.9 | 132 | 86 | 89.1 | 97.7 | 94 | 109 | 91.5 | 90.6 | 99.6 |
| CCN(CC)CCCCNc1ncc2cc(-c3cc(OC)cc(OC)c3)c(NC(=O)NC(C)(C)C)nc2n1 + O=C(O)C(=O)Nc1sc2c(c1C(=O)O)CCNC2 [TCS401] (first compound 0.1 µM, partner dose 1.66667 µM) | 89.1 | 110 | 106 | 97.6 | 106 | 109 | 106 | 107 | 95.3 | 104 |
| N#Cc1c(O)c2c(-c3ccc(-c4ccccc4O)cc3)csc2[nH]c1=O + O=C1NC(=O)/C(=C/c2ccc(-c3ccc(F)cc3O)o2)S1 [AS252424] (first compound 2 µM, partner dose 1 µM) | 94 | 189 | 92.3 | 91.7 | 102 | 101 | 88.7 | 76.1 | 96 | 97.6 |
| COc1ccc2c(c1)CCC1C2CCC2(C)C(NCCCCCCN3C(=O)C=CC3=O)CCC12 (stereo unspecified) + O=C1NC(=O)/C(=C/c2ccc(-c3ccc(F)cc3O)o2)S1 [AS252424] (first compound 0.4 µM, partner dose 1 µM) | 92.8 | 99.1 | 103 | 88.4 | 94.8 | 98 | 117 | 84.4 | 109 | 92.4 |
| COc1cc2ncnc(Nc3ccc(Oc4ccccc4)cc3)c2cc1OC + O=C1NC(=O)/C(=C/c2ccc(-c3ccc(F)cc3O)o2)S1 [AS252424] (first compound 2 µM, partner dose 1 µM) | 98.4 | 113 | 124 | 91.6 | 92.3 | 105 | – | 99.7 | 117 | – |
| COc1ccc2c(c1)CCC1C2CCC2(C)C(NCCCCCCN3C(=O)C=CC3=O)CCC12 (stereo unspecified) + c1cc(-c2cnn3cc(-c4ccc(OCCN5CCCCC5)cc4)cnc23)ccn1 [Dorsomorphin] (first compound 0.4 µM, partner dose 0.4 µM) | 93.5 | 58.5 | 104 | 97 | 99.3 | 97.4 | 111 | 78.7 | 100 | 97.3 |
| COc1ccc(COc2ccc(Cc3cnc(N)nc3N)cc2OC)cc1 + COc1cc2ncnc(Nc3ccc(Oc4ccccc4)cc3)c2cc1OC [SrcI1] (first compound 1 µM, partner dose 2 µM) | 91.3 | 101 | 94.9 | 101 | 94.8 | 101 | 116 | 112 | 85.5 | 93.1 |
| CCN(CC)CCCCNc1ncc2cc(-c3cc(OC)cc(OC)c3)c(NC(=O)NC(C)(C)C)nc2n1 + Oc1cc(-c2nc(-c3ccccc3)[nH]c2-c2ccncc2)ccc1Cl [L779450] (first compound 0.1 µM, partner dose 0.2 µM) | 85.8 | 82.2 | 81.3 | 96.3 | 76.4 | 92.9 | – | 111 | 84.7 | – |
| COc1ccc2c(c1)CCC1C2CCC2(C)C(NCCCCCCN3C(=O)C=CC3=O)CCC12 (stereo unspecified) + CC(C)CCN1c2nc(Nc3cc(F)c(O)c(F)c3)ncc2N(C)C(=O)C1C [BID1870] (first compound 0.4 µM, partner dose 0.2 µM) | 93.1 | 121 | 67.4 | 85.6 | 93.6 | 109 | 86.5 | 216 | 94.1 | 93.9 |
| COc1ccc2c(c1)CCC1C2CCC2(C)C(NCCCCCCN3C(=O)C=CC3=O)CCC12 (stereo unspecified) + COc1ccc(-c2ccc3c(N4CCOCC4)nc(N4C[C@@H](C)O[C@@H](C)C4)nc3n2)cc1CO [KU0063794] (first compound 0.4 µM, partner dose 0.02 µM) | 101 | 126 | 47.5 | 96.5 | 95.2 | 92.2 | 90.3 | 98.7 | 113 | 90.2 |
| Oc1cc(-c2nc(-c3ccccc3)[nH]c2-c2ccncc2)ccc1Cl + Cn1cc(/C=C2\C(=O)Nc3cccnc32)c2ccccc21 [GW441756] (first compound 0.2 µM, partner dose 0.4 µM) | 104 | 80.5 | 101 | 92.8 | 108 | 89.1 | 112 | 107 | 86 | 90.9 |
